Laboratory results published in paper PMC6212790.
This is one part of the list. At the low end of the ranking the order means little.
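Further: rank score from −0.5 (least bound) to 0.5 (best bound).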

The sequences below were run against T1, GST-Rok-C97-191 (UniProt O34857) (assay: protein binding microarray). Conditions: Rok is a gene silencer of Bacillus subtilis; high values mean tight binding; most listed sequences are background and not binding sites; double strand, one strand shown.
T1 sequence: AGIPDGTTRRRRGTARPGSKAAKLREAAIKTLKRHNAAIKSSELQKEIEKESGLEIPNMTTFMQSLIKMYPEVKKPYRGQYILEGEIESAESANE
GCGTTTAC gave a binding signal of -0.159 E-score.
With ACTACCCG the binding signal was 0.0272 E-score.
In the case of CTGGAACC, the binding signal was -0.0259 E-score.
Work on AAGCATAG yielded a binding signal of 0.0443 E-score.
GGCCTGAA gave a binding signal of -0.228 E-score.
Work on CCGGCGCG yielded a binding signal of -0.359 E-score.
AACTATAA showed a binding signal of 0.309 E-score.
For CGGCAGAA, the binding signal was -0.0967 E-score.
In the case of GTGCGTCA, the binding signal was -0.0321 E-score.
ACGCATAC gave a binding signal of 0.0846 E-score.
Sequence ATGGTTAC has a binding signal of -0.208 E-score.
Sequence AAAGATCC has a binding signal of 0.00535 E-score.
For AAGTCACG, the binding signal was -0.0367 E-score.
CGTTGGGC showed a binding signal of -0.288 E-score.
ACAACGAA showed a binding signal of 0.151 E-score.
CCTCAACA gave a binding signal of -0.0481 E-score.
With CTCTGTAC the binding signal was -0.152 E-score.
TTCACAAA gave a binding signal of 0.0906 E-score.
With GCTCTACA the binding signal was -0.102 E-score.
For CTTATCGA, the binding signal was 0.063 E-score.
ATTTCATA showed a binding signal of 0.241 E-score.
TCATAGGA showed a binding signal of 0.154 E-score.
GATCTGCA gave a binding signal of 0.045 E-score.
For ACGGCCAG, the binding signal was -0.104 E-score.
Sequence CCAGGGGG has a binding signal of -0.283 E-score.
AAAGCCAT showed a binding signal of -0.088 E-score.
ACGATTGC was tested, and the binding signal was -0.048 E-score.
For CGGAAGTA, the binding signal was 0.125 E-score.
Work on CAGATCCG yielded a binding signal of -0.0874 E-score.
AGCCGTAA was tested, and the binding signal was -0.0793 E-score.
Sequence AATCTGCT has a binding signal of -0.112 E-score.
For CCCCTGTA, the binding signal was -0.123 E-score.
With ACTTGGCA the binding signal was -0.102 E-score.
With AAGGCGGT the binding signal was -0.0701 E-score.
CCTTGAGC was tested, and the binding signal was -0.154 E-score.
With CGCAGACC the binding signal was -0.165 E-score.
AGTCGTTC showed a binding signal of -0.195 E-score.
GCACTGAC showed a binding signal of 0.0455 E-score.
GTTACTTA gave a binding signal of 0.188 E-score.
CGAGAGTC showed a binding signal of -0.158 E-score.
For ATTCTCGC, the binding signal was -0.0481 E-score.
ACGTACAT gave a binding signal of 0.258 E-score.
For ATAAATGG, the binding signal was -0.0116 E-score.
With AGGTGAGC the binding signal was -0.0241 E-score.
In the case of AAGGAATC, the binding signal was -0.0107 E-score.
In the case of CCCTTGAA, the binding signal was -0.118 E-score.
For ATGGCCCG, the binding signal was -0.0979 E-score.
With AGCGTCTG the binding signal was 0.0658 E-score.
In the case of CTGGCGGC, the binding signal was -0.267 E-score.
With CTTAAGTC the binding signal was -0.204 E-score.
CTGATGGC showed a binding signal of -0.0245 E-score.
ATTGATGA showed a binding signal of 0.0215 E-score.
For AAGAACTT, the binding signal was -0.176 E-score.
For CGATCTGA, the binding signal was 0.029 E-score.
Work on ACAAAAGA yielded a binding signal of -0.0647 E-score.
Work on CGTTCACA yielded a binding signal of -0.106 E-score.
GAGCAGCA was tested, and the binding signal was -0.0392 E-score.
Sequence GGGAACAA has a binding signal of -0.0777 E-score.
Sequence AGTTTTAT has a binding signal of 0.291 E-score.
GTCACAGA showed a binding signal of -0.138 E-score.
With CCTCGACC the binding signal was -0.239 E-score.
CTACACAC was tested, and the binding signal was 0.0653 E-score.
With TAAGTCGA the binding signal was 0.0787 E-score.
AATTGGGA gave a binding signal of 0.0388 E-score.
Work on ATCGGCCG yielded a binding signal of -0.0821 E-score.
GAGGGAAC gave a binding signal of -0.0649 E-score.
AGACTGTA gave a binding signal of 0.163 E-score.
With ATGCCCCA the binding signal was -0.222 E-score.
AGTCGAAC was tested, and the binding signal was -0.0233 E-score.
For CTGTAGGC, the binding signal was -0.0325 E-score.
ATGGGAGA showed a binding signal of 0.0644 E-score.
Sequence TACTCGCA has a binding signal of -0.00444 E-score.
Sequence AGCTTAGC has a binding signal of 0.0963 E-score.
Sequence AGCATCAA has a binding signal of -0.0279 E-score.
ACTATCAT showed a binding signal of 0.289 E-score.
With CCAGATAA the binding signal was -0.0149 E-score.
In the case of TATAAGAA, the binding signal was 0.165 E-score.
In the case of AGCATCAG, the binding signal was -0.0279 E-score.
For CATCATGG, the binding signal was 0.00052 E-score.
Work on TCAAAGAA yielded a binding signal of 0.103 E-score.
With AAACACGA the binding signal was 0.046 E-score.
For GGTCTTAC, the binding signal was -0.141 E-score.
CAGCTCGC gave a binding signal of -0.253 E-score.
GACACACC gave a binding signal of -0.203 E-score.
GCTTTACC gave a binding signal of -0.0281 E-score.
Work on AGCAGAAG yielded a binding signal of -0.0574 E-score.
TGCCAGCA was tested, and the binding signal was 0.171 E-score.
With AGCCATGC the binding signal was -0.149 E-score.
CGGCCGTA gave a binding signal of 0.0354 E-score.
In the case of ACAGAGTG, the binding signal was -0.0464 E-score.
Work on CGGGCTTC yielded a binding signal of -0.0782 E-score.
Sequence CGGGGAAC has a binding signal of -0.157 E-score.
GGGCCCGA was tested, and the binding signal was -0.0395 E-score.
With ATTCCCGA the binding signal was -0.00573 E-score.
ATAAATTA showed a binding signal of 0.259 E-score.
GACGCCTC was tested, and the binding signal was -0.305 E-score.
In the case of GCTGTGTA, the binding signal was 0.121 E-score.
Sequence ACCTGATG has a binding signal of 0.117 E-score.
In the case of CAACAGCG, the binding signal was -0.182 E-score.
CGTTGATC was tested, and the binding signal was -0.0737 E-score.
For CATACTAA, the binding signal was 0.0976 E-score.
For AAGCACCG, the binding signal was -0.194 E-score.
With ACCACGTA the binding signal was 0.0886 E-score.
Work on ACGGCCAC yielded a binding signal of -0.32 E-score.
With ACACTCGA the binding signal was -0.0861 E-score.
In the case of AAAATCGT, the binding signal was 0.0993 E-score.
Sequence GCCATGTA has a binding signal of 0.0684 E-score.
With AATGCACG the binding signal was -0.0574 E-score.
For ATTCAACA, the binding signal was 0.113 E-score.
In the case of GGCCGGAC, the binding signal was -0.234 E-score.
Sequence CAGGCTGA has a binding signal of -0.0825 E-score.
With AGTTGTCG the binding signal was 0.154 E-score.
CAACGTCG was tested, and the binding signal was -0.0086 E-score.
Work on CAGATTTA yielded a binding signal of 0.148 E-score.
For CGCGACAG, the binding signal was -0.119 E-score.
With ACACTCGG the binding signal was 0.0662 E-score.
With ATAAGACG the binding signal was -0.00614 E-score.
With CCAGATTC the binding signal was 0.0227 E-score.
CGACTGTA showed a binding signal of 0.0686 E-score.
Sequence CATTTGGA has a binding signal of -0.0727 E-score.
For GCTTTCAC, the binding signal was -0.0304 E-score.
With AGTGTTCC the binding signal was -0.0573 E-score.
AAAGAGCG gave a binding signal of -0.142 E-score.
In the case of ACAACCTG, the binding signal was -0.0489 E-score.
With ACTTCGTG the binding signal was -0.124 E-score.
GACCGTGA gave a binding signal of -0.197 E-score.
CGCGTGAG was tested, and the binding signal was -0.155 E-score.
Sequence TTACAAAA has a binding signal of -0.0374 E-score.
TAGCTTCA gave a binding signal of 0.143 E-score.
GACATTAA showed a binding signal of 0.0648 E-score.
CGGCGCCG gave a binding signal of -0.317 E-score.
With CAAAGACG the binding signal was -0.134 E-score.
ATCTTGAC was tested, and the binding signal was -0.167 E-score.
Work on AACCCCCG yielded a binding signal of -0.25 E-score.
ATAGCCGC showed a binding signal of -0.0394 E-score.
AGAACGTA was tested, and the binding signal was 0.0866 E-score.
AACAATGA showed a binding signal of 0.0026 E-score.
AGGTTATA was tested, and the binding signal was 0.0285 E-score.
With ATCACAAA the binding signal was 0.216 E-score.
For GAGGGAGC, the binding signal was -0.336 E-score.
ACTCCGGA showed a binding signal of -0.0255 E-score.
Sequence ACGGACGT has a binding signal of -0.0675 E-score.
For CGGTGACG, the binding signal was -0.113 E-score.
AGGTCGGC was tested, and the binding signal was -0.279 E-score.
With GTATTAAA the binding signal was 0.158 E-score.
With AGTTCGCC the binding signal was 0.000411 E-score.
CCAGTGCC gave a binding signal of -0.17 E-score.
In the case of AGTAACAG, the binding signal was 0.186 E-score.
Sequence CTGCAGTA has a binding signal of 0.0959 E-score.
AGACTTGA gave a binding signal of -0.281 E-score.
With CCGTGTAA the binding signal was 0.0352 E-score.
Work on CGAAGTTC yielded a binding signal of 0.0766 E-score.
Work on CGTGAAAC yielded a binding signal of -0.149 E-score.
For GGAGAGGA, the binding signal was -0.171 E-score.
In the case of CAAGCCGG, the binding signal was -0.0919 E-score.
Sequence ACCGACGT has a binding signal of -0.119 E-score.
Work on ACGCCCGG yielded a binding signal of -0.295 E-score.
Sequence AAAACGTA has a binding signal of 0.139 E-score.
GGGATCCC showed a binding signal of -0.33 E-score.
CACAACCC gave a binding signal of -0.14 E-score.
CAGGATTC showed a binding signal of -0.00781 E-score.
AAATTCCT showed a binding signal of 0.0295 E-score.
Sequence CATTCCAC has a binding signal of -0.157 E-score.
AGTTTGCC was tested, and the binding signal was 0.113 E-score.
In the case of AACGAGTA, the binding signal was 0.0553 E-score.
Work on ACGTGTAT yielded a binding signal of 0.181 E-score.
Sequence ATAGCCAT has a binding signal of -0.193 E-score.
With ACAGTCAA the binding signal was -0.00757 E-score.
AGGGCGCG was tested, and the binding signal was -0.314 E-score.
Work on AGAGGGTG yielded a binding signal of -0.298 E-score.
ACATAAAC gave a binding signal of 0.146 E-score.
Sequence ACCGGCTC has a binding signal of -0.289 E-score.
